The campaign covered roughly 200,000 compounds. About 4,500 (2.2%) were called active. This list was built around the results that the source calls inconclusive (neither active nor inactive); the mix of calls is not that of the screen. The call rests on the fitted dose curve; in most records, active means well fitted inhibition curve with a large enough effect; inconclusive means small, poorly fitted or top-dose-only effect, or effect the other way; inactive means flat fitted curve, though single readings scatter. Potencies beside an inconclusive call are fits to weak or partial responses and may not hold up.
Each compound was assayed against Cruzipain (Trypanosoma cruzi) (UniProt P25779) (assay: qHTS Assay for Promiscuous and Specific Inhibitors of Cruzain (without detergent)). Conditions: purified cruzain, Z-FR-AMC fluorescence, no detergent.
Summary of the method: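 Detergent-free condition (0.00005% Triton X-100) in acetate buffer pH 5.5 with DTT. 1.5 nM enzyme and compound were pre-mixed 15 min, then 2 uM Z-FR-AMC substrate added; reaction progress from fluorescence change between first and third reads (60 s).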
Further: nearly all actives have a fitted effect of over 40% in size.
Potency means the concentration at half of the fitted maximal effect; tags describe the fitted curve by direction and shape.
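Wherever max response, negative = inhibition is given: plate controls were enzyme without inhibitor for no effect and buffer without enzyme for full effect.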

Chain of UniProt P25779 (P25779 whole entry, looked up): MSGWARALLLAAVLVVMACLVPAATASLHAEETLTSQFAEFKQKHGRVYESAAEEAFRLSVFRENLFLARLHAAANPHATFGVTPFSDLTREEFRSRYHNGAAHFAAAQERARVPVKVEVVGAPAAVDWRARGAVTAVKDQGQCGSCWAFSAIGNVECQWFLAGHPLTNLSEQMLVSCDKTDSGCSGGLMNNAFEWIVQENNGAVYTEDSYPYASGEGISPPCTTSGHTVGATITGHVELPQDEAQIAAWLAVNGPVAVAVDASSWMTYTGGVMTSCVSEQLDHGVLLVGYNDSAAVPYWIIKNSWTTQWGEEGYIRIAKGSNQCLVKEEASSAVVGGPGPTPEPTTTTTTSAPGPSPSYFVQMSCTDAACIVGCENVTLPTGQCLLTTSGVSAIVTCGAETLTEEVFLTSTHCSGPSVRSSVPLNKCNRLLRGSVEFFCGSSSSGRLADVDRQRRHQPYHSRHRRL

| Structure (SMILES) | Potency | max response, negative = inhibition |
| --- | --- | --- |
| Cc1ccccc1C(=O)NCCc1csc(-c2ccc(C(F)(F)F)cc2)n1 | inconclusive: 39.8 µM [activator, single point] | – |
| COC1C=CO[C@@]2(C)Oc3c(C)c(O)c4c(O)c(c(C=NN5CCN(C)CC5)c(O)c4c3C2=O)NC(=O)/C(C)=C\C=CC(C)C(O)[C@@H](C)C(O)C(C)[C@H](OC(C)=O)C1C (stereo partly specified) | inconclusive: 10 µM [activator, partial curve] | – |
| CN1C(=O)c2ccccc2Sc2ccc(NC(=O)NCc3cccc(Cl)c3)cc21 | inconclusive: 39.8 µM [activator, single point] | – |
| Cc1cc(C)cc(NC(=O)Cc2ccc(-n3cccc3)cc2)c1 | inconclusive: 39.8 µM [inhibitor, single point] | – |
| COC(=O)c1ccccc1NC(=O)c1c(O)c2cccc3c2n(c1=O)CCC3 | inconclusive: 31.6 µM [activator, single point] | – |
| CCN(CC)S(=O)(=O)c1ccc(C(=O)NCCSc2c(-c3ccc(C)cc3)[nH]c3ccccc23)cc1 | active: 25.1 µM | – |
| Cc1cc2c3c(c1C)C1(C(=O)N3C(C)(C)CC2C)C(C#N)=C(N)OC2=C1C(=O)CC(C)(C)C2 (stereo unspecified) | inconclusive: 25.1 µM [activator, partial curve] | – |
| CCCCc1cc2c(c(NC(C)=O)n1)c(=O)oc1ccccc12 | inconclusive: 25.1 µM [inhibitor, single point] | – |
| O=C(CN1C(=O)COc2ccc(S(=O)(=O)N3CCCC3)cc21)N1CCN(c2cccc(C(F)(F)F)c2)CC1 | inconclusive: 25.1 µM [activator, partial curve] | – |
| COc1ccc(CCNC(=O)c2ccc3c(c2)N(Cc2ccccc2F)C(=O)c2ccccc2S3=O)cc1OC (stereo unspecified) | inconclusive: 31.6 µM [activator, single point] | – |
| CCCCN(CCCC)c1ccc(C(=O)c2ccccc2C(=O)O)c(O)c1 | inconclusive: 39.8 µM [activator, single point] | – |
| O=C(Nc1ccc2nn(-c3ccccc3)nc2c1)c1ccc(Br)o1 | inconclusive: 25.1 µM [inhibitor, single point] | – |
| COc1ccc(CCNC(=O)Cn2nnc(-c3ccc(N(C)C)cc3)n2)cc1OC | inconclusive: 39.8 µM [activator, single point] | – |
| O=c1oc(-c2cccs2)nc2sc3c(c12)CCCC3 | inconclusive: 39.8 µM [inhibitor, single point] | – |
| COc1cccc(OCc2cc(=O)n3c(-c4ccccc4)csc3n2)c1 | – | inactive: 13.9% |
| CC(/C=N/NC(=O)c1cc(-c2cccnc2)nc2c1c(C)nn2-c1ccccc1)=C\c1ccccc1 | active: 12.6 µM | – |
| COC(=O)CCC(NC(=O)c1cc(-c2ccc3c(c2)OCCO3)oc1C)C(=O)OC (stereo unspecified) | inconclusive: 31.6 µM [activator, single point] | – |
| CCN(CC)c1nc2c(S(=O)(=O)c3cccc(Cl)c3)nnn2c2ccsc12 | – | inactive: -16.1% |
| N#Cc1nc(-c2cccs2)oc1N1CCN(c2ccccc2)CC1 | inconclusive: 31.6 µM [inhibitor, single point] | – |
| COc1ccc(-n2nc(C(=O)N3CCN(c4ccc(F)cc4)CC3)c3ccccc3c2=O)c(OC)c1 | inconclusive: 39.8 µM [activator, single point] | – |
| CCc1ccc(-c2cc(C(=O)NCc3ccccn3)c3ccccc3n2)cc1 | inconclusive: 39.8 µM [activator, single point] | – |

| Structure (SMILES) | Potency | max response, negative = inhibition |
| --- | --- | --- |
| CCOC(=O)Cc1csc(N/N=C/c2ccccc2)n1 | – | inactive: 0.658% |
| COc1ccc(CCNC(=O)c2cc(C(=O)c3cc(C)ccc3O)cn(CCc3ccc(OC)cc3)c2=O)cc1 | inconclusive: 25.1 µM [inhibitor, partial curve] | – |
| CCC(C)Nc1oc(-c2ccc(COc3ccc(Cl)cc3)o2)nc1C#N (stereo unspecified) | – | inactive: 2.48% |
| CCOC(=O)C1=C(O)/C(=C\c2ccc(CNC(=O)C(=O)Nc3ccccc3)o2)N=C1C | inconclusive: 39.8 µM [activator, single point] | – |
| COc1ccc(CNC(=O)Cn2nc(N3CCN(c4ccccc4)CC3)ccc2=O)c(OC)c1 | inconclusive: 25.1 µM [activator, single point] | – |
| Cc1cc(N=Cc2c(CO)cnc(C)c2O)c(N=Cc2c(CO)cnc(C)c2O)cc1C.[Zn] | inconclusive: 3.98 µM [inhibitor, single point] | – |
| Cc1nc2cnc(N(C)C)nc2n(CCc2ccccc2)c1=O | – | inactive: 28.6% |
| COc1ccc(S(=O)(=O)c2c(SC)nn(CC(=O)Nc3cccc(C)c3C)c2N)cc1 | – | inactive: -7.46% |
| Cc1ccc2c(c1)NC(=O)c1cccnc1O2 | inconclusive: 0.158 µM [activator, single point] | – |
| COc1ccc(NC(=S)N2CCNC(=O)C2CC(=O)Nc2cccc(Cl)c2C)cc1 (stereo unspecified) | inconclusive: 39.8 µM [activator, single point] | – |
| CCCn1c(=O)c2[nH]c(-c3ccc(S(=O)(=O)O)cc3)nc2n(CCC)c1=O | inconclusive: 25.1 µM [activator, single point] | – |
| CCN1C(c2ccccc2)=C(c2ccccc2)S/C1=C/C=C1\SC(=S)N(C)C1=O | active: 10 µM | – |
| Cc1ccc(Nc2nc(N)nc(CN3CCN(c4ccccc4)CC3)n2)cc1Cl | inconclusive: 39.8 µM [inhibitor, single point] | – |
| Nc1c2c(nc3sc4c(c13)CCCC4)CCCCCC2 | active: 25.1 µM | – |
| COc1ccc(CCNc2oc(-c3cccc4ccccc34)nc2P(=O)(OC)OC)cc1OC | inconclusive: 25.1 µM [activator, single point] | – |
| CC(C)CCn1c(=O)c2sccc2n2c(CCCC(=O)NC3CCC(C)CC3)nnc12 (stereo unspecified) | – | inactive: -3.29% |
| CC12C(=O)N(c3ccc(C(=O)N4CCOCC4)cc3)C(=O)C1C1c3ccccc3C2c2ccccc21 (stereo unspecified) | inconclusive: 31.6 µM [activator, single point] | – |
| Cn1cc(C(=O)NCCN2CCN(c3cccc(Cl)c3)CC2)c2c3ccccc3n(C)c2c1=O | inconclusive: 31.6 µM [activator, single point] | – |
| C=CC1=C(C(=O)O)N2C(=O)[C@@H](NC(=O)C(N=O)c3csc(N)n3)[C@H]2SC1 (stereo partly specified) | – | inactive: -5.65% |
| CCOc1ccccc1C(=O)NCC(=O)OCC(=O)NCCc1ccc(S(N)(=O)=O)cc1 | active: 15.8 µM | – |
| O=C(COC(=O)C1CCN(S(=O)(=O)c2ccc3c(c2)OCCO3)CC1)Nc1cccc2ccccc12 | inconclusive: 31.6 µM [inhibitor, single point] | – |

| Structure (SMILES) | Potency | max response, negative = inhibition |
| --- | --- | --- |
| Cn1c(Cl)c(/C=N/OC(=O)c2cccc(Cl)c2)c2ccccc21 | inconclusive: 39.8 µM [inhibitor, single point] | – |
| CC1CCC(NC(=O)c2ccc(CS(=O)(=O)c3c(Cl)cccc3Cl)o2)CC1 (stereo unspecified) | – | inactive: 2.39% |
| Cc1ccc(OCCSc2nnc(NC(=O)c3ccco3)s2)cc1 | active: 25.1 µM | – |
| CCN(CC)C(=O)Cn1cc(/C=C(\C#N)C(=O)N2CCN(c3ccccc3)CC2)c2ccccc21 | inconclusive: 39.8 µM [activator, single point] | – |
| CCn1c(=O)c(C(=O)NCc2cccnc2)c(O)c2ccccc21 | inconclusive: 39.8 µM [activator, single point] | – |
| CS(=O)(=O)N1CCCc2cc(C(=O)Nc3cccc(C(F)(F)F)c3)ccc21 | inconclusive: 39.8 µM [activator, single point] | – |
| NC(=O)CSc1nnc(Cc2csc(Nc3ccccc3)n2)n1Cc1ccccc1 | inconclusive: 39.8 µM [activator, single point] | – |
| CCOc1ccc(OCc2ccc(C(=O)OCc3ccccn3)o2)cc1 | inconclusive: 39.8 µM [activator, single point] | – |
| C=CCNC(=O)c1c(N)n(Cc2ccco2)c2nc3ccccc3nc12 | inconclusive: 31.6 µM [activator, single point] | – |
| CC(C)CNC(=O)c1cccc(NC(=O)c2ccc(NC(=O)c3ccco3)cc2)c1 | inconclusive: 1 µM [inhibitor, full curve] | – |
| CCOC(=O)c1c(NC(=O)C(=O)N/N=C/c2ccc(OCC)cc2)sc2c1CCCCC2 | inconclusive: 7.94 µM [inhibitor, full curve] | – |
| COc1ccc(OC)c(S(=O)(=O)N(C)CC(=O)N2CCN(c3cccc(Cl)c3)CC2)c1 | inconclusive: 25.1 µM [activator, single point] | – |
| O=C(O)c1ccc(NC(=O)c2cn(-c3ccccc3)nc2-c2ccc(Br)cc2)cc1 | inconclusive: 39.8 µM [activator, single point] | – |
| CCc1ccc(N(C(=O)c2snc(C(N)=O)c2N)C(C(=O)NCCC(C)C)c2c[nH]c3ccccc23)cc1 (stereo unspecified) | inconclusive: 15.8 µM [inhibitor, single point] | – |
| CCOC(=O)C1=C(C)N(CCO)C(=O)NC1c1cccc(O)c1 (stereo unspecified) | – | inactive: -1.33% |
| COc1ccc(-c2nnc(SCC(=O)N3CCCc4ccccc43)o2)cc1OC | inconclusive: 39.8 µM [activator, single point] | – |
| O=C(c1ccco1)N1CCN(C(=O)C2CC(c3ccc(Cl)c(Cl)c3)=NO2)CC1 (stereo unspecified) | inconclusive: 39.8 µM [activator, single point] | – |
| COC(=O)c1ccc(NC(=O)COC(=O)c2cccc3c(=O)c(C)c(-c4ccccc4)oc23)cc1 | inconclusive: 39.8 µM [inhibitor, single point] | – |
| CCOC(=O)C(NC(C)=O)C(OC(C)=O)c1cccc(N(CCCl)CCCl)c1 (stereo unspecified) | inconclusive: 31.6 µM [activator, single point] | – |
